Hit rate of the full screen: of about 48,000 compounds, about 550 (1.1%) were called active. Roughly 4% stayed inconclusive and do not appear here. No stated cut-off is given here; in the data, active means potency below about 15 µM; inconclusive means mostly about 16 µM to 33 µM; inactive means weaker than that. The list shows a part of the results.
biological target: Lysosomal acid glucosylceramidase (Homo sapiens) (UniProt P04062); test: Glucocerebrosidase; conditions: purified enzyme, resorufin glucoside fluorescence (screen aimed at inhibitors), 20 min;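 further: the screen sought inhibitors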
Chain of UniProt P04062 (P04062 whole entry, looked up): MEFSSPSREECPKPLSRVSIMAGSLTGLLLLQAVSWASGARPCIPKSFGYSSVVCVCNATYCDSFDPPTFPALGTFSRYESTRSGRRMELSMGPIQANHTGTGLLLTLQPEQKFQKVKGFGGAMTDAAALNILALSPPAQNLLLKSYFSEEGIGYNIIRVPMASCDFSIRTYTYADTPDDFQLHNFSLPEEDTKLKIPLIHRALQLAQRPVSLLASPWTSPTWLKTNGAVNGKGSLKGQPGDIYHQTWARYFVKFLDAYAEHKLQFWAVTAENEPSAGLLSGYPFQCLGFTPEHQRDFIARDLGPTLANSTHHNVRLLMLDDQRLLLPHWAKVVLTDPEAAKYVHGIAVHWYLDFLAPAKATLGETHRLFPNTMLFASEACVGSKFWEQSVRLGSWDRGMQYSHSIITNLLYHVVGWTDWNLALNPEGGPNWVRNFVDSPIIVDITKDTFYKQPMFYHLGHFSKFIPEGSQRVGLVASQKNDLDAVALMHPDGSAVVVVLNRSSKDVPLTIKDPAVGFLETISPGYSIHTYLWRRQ
Summary of the method: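 Wild-type enzyme at 0.2 nM final in 50mM citric acid/KH2PO4, 10mM sodium taurocholate, 0.01% tween-20, pH 5.9, with resorufin beta-D-glucopyranoside at 30 uM final. Compounds titrated, 20 min at RT, red fluorescence read; AC50 from titration.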
Potency means the concentration at half of the fitted maximal effect.

Potency, inactive:
CC1Cc2cc(C(=O)O)ccc2O1 (configuration not stated) > 76.9 µM, Cc1ccc(C)c(OCC(O)CN2CCC(C)CC2)c1C (configuration not stated) > 76.9 µM, Cc1nn2c(c1-c1ccccc1)NC1=C(C(=O)CCC1)C2c1cccnc1 (configuration not stated) > 76.9 µM, COCNc1nc(OCC#N)nc(N(C)C)n1 > 76.9 µM, Cn1c(N)c(C(=O)CSc2ccc3c(c2)OCCO3)c(=O)n(C)c1=O > 76.9 µM, COc1ccc(N2CCN(Cc3cc(=O)oc4ccc(Cl)cc34)CC2)cc1 > 76.9 µM, Cc1c(NS(=O)(=O)c2ccc3[nH]c(=O)[nH]c3c2)c(=O)n(-c2ccccc2)n1C > 76.9 µM, Cc1cc2cc(CN(CCCN3CCOCC3)C(=O)NC3CCCCC3)c(=O)[nH]c2cc1C, CN(C)c1ncc(C(=O)O)cn1 > 76.9 µM, COC(=O)CSc1nnc(-c2ccco2)n1Cc1ccco1 > 76.9 µM, COc1ccc(-c2nnnn2-c2ccccc2OC)cc1 > 76.9 µM, O=C(Nc1ccccc1)c1ccc(S(=O)(=O)N(CCO)CCO)cc1 > 76.9 µM, O=C(CSc1nnc(-c2ccc(Br)cc2)o1)Nc1cccc2ccccc12 > 76.9 µM, Cc1cccc(OCCCC(=O)O)c1 > 76.9 µM, O=C(COc1ccc(S(=O)(=O)N2CCCC2)cc1Cl)NCc1ccco1 > 76.9 µM, CC(C)N(O)C(=O)NC(C)(C)C > 76.9 µM, Cc1ccsc1C(=O)OCC(=O)c1cc(C)n(CC2CCCO2)c1C (configuration not stated) > 76.9 µM, CCCCn1c(-c2ccccc2)nnc1-c1ccccc1 > 76.9 µM, Cn1c(=O)[nH]c(=O)c2c1ncn2CCN1CCCCC1 > 76.9 µM, Cn1c(=O)c2c(ncn2Cc2cc(-c3ccccc3)no2)n(C)c1=O > 76.9 µM, N#Cc1ccc(CSc2nnc(-c3ccccn3)n2-c2ccccc2)cc1 > 76.9 µM, CSc1cccc(NS(=O)(=O)c2cccc3nsnc23)c1 > 76.9 µM, CCOC(=O)C(NC(C)=O)(N1CCc2ccccc2C1)C(F)(F)F (configuration not stated) > 76.9 µM, O=C(COC(=O)c1ccccn1)Nc1c(Cl)cccc1Cl > 76.9 µM, CCc1nnc(NC(=O)c2cnccn2)s1 > 76.9 µM, O=C(c1ccco1)N1CCN(c2ccc(Cl)c(Cl)c2)CC1 > 76.9 µM, COc1ccc2cc(CN(Cc3ccco3)Cc3nnnn3C3CCCCC3)c(=O)[nH]c2c1 > 76.9 µM, Cc1cccc(NC(=O)c2cc3n(n2)C(C(F)(F)F)CC(c2ccc4c(c2)OCO4)N3)c1 (configuration not stated) > 76.9 µM, O=C(NCCCN1CCOCC1)c1cc2c(s1)CCCC2 > 76.9 µM, Cc1ccc(S(=O)(=O)N2CCOCC2)cc1C(=O)N1CCOCC1 > 76.9 µM, CC1CN(C(=O)CSc2nnc(-c3ccncc3)n2-c2ccccc2)CC(C)O1 (configuration not stated) > 76.9 µM, O=C(c1cccc(F)c1)n1nnc2ccccc21 > 76.9 µM, COc1ccccc1NC(=O)c1[nH]c(C)c(C(C)=O)c1C > 76.9 µM, COC(=O)C1CCC(C)(C(=O)Nc2ccccc2)C1(C)C (configuration not stated) > 76.9 µM, COc1cc(OC)c(C2CC(=O)N3CN(c4ccc(C)cc4)CSC3=C2C#N)cc1OC (configuration not stated), O=C(CCCn1c(=S)[nH]c2ccccc2c1=O)N1CCOCC1 > 76.9 µM, CCOCCCNC(=O)C(c1ccc(C)cc1)N(Cc1ccc2c(c1)OCO2)C(=O)CNC(C)=O (configuration not stated) > 76.9 µM, COc1ccc(NC(=O)c2cc3n(n2)C(C(F)(F)F)CC(c2ccc4c(c2)OCO4)N3)cc1OC (configuration not stated) > 76.9 µM, CC1(C)NC(=O)N(CC(O)COc2ccc(-c3ccc(C#N)cc3)cc2)C1=O (configuration not stated) > 76.9 µM, CC(C)NS(=O)(=O)c1ccc(CCC(=O)NCc2ccco2)cc1 > 76.9 µM, CC(C)C(=O)Nc1nnc(Cc2ccccc2)s1 > 76.9 µM, CCOC(=O)c1c(NC(=O)CSc2nc(C)cc(C)c2C#N)sc(C(C)=O)c1C > 76.9 µM, CCCc1cc(-c2n[nH]c(C)c2-c2ccc(C(=O)OCC)o2)c(O)cc1O, CCOc1ccccc1Oc1coc2cc(O)ccc2c1=O > 76.9 µM, O=C1CCC(=O)N1OCCCOc1ccc(Br)cc1Cl > 76.9 µM, O=C1NCCN1CCNS(=O)(=O)c1ccc2ccccc2c1 > 76.9 µM, Cn1c(C(=O)N2CCN(Cc3ccc4c(c3)OCO4)CC2)cc2sccc21 > 76.9 µM, Cc1cc(=O)n2nc(N3CCC(C(=O)N4CCN(Cc5ccccc5)CC4)CC3)sc2n1 > 76.9 µM, CCn1c(=O)c(C(=O)Nn2c(C)nc3ccccc3c2=O)c(O)c2ccccc21 > 76.9 µM, O=C(c1cccc(S(=O)(=O)NCCOc2ccccc2)c1)N1CCN(c2ncccn2)CC1 > 76.9 µM, CCOCCOC(=O)CCSc1n[nH]c(=O)[nH]c1=O > 76.9 µM, O=C(Nc1c(C(=O)O)[nH]c2ccccc12)NC1CCCCC1 > 76.9 µM, O=C(CN1C(=O)CSC1=O)Nc1ccc2c(c1)OCCO2 > 76.9 µM, O=C(C1CCN(C2CC(=O)N(Cc3ccccc3)C2=O)CC1)N1CCCCCC1 (configuration not stated) > 76.9 µM, CCCCC(=O)Nc1ccc(C(N)=O)cc1 > 76.9 µM, COc1ccccc1NC(=O)CSc1nnc(CNC(=O)COc2ccc(Cl)cc2)o1 > 76.9 µM, CCCC(=O)Nc1cc(OCC)c(NC(=O)NC2CCCCC2)cc1OCC > 76.9 µM, CCCCCCNC(=O)c1c(O)c2cccc3c2n(c1=O)CCC3, O=S(=O)(NCCSc1nnnn1-c1ccccc1)c1cccs1 > 76.9 µM, CCN(CC)S(=O)(=O)c1ccc(NC(=O)C(OC)c2ccccc2)cc1 (configuration not stated) > 76.9 µM, Cc1cc(=O)oc(C)c1C(=O)NCC1COc2ccccc2O1 (configuration not stated) > 76.9 µM, Cn1nc(C(C)(C)C)cc1C(=O)NCc1ccc(N2CCCC2=O)cc1 > 76.9 µM, COC(=O)c1ccccc1NC(=O)c1ccco1 > 76.9 µM, O=C(CSc1nnc(-c2ccco2)o1)NC1CC2CCC1C2 (configuration not stated) > 76.9 µM, COc1cc(C)c(S(=O)(=O)Nc2ccc(CC(=O)O)cc2)cc1C > 76.9 µM, CCOC(=O)Cn1nc(-c2ccc(Cl)cc2)ccc1=O > 76.9 µM, Cc1ccc(CNc2nc3c([nH]2)c(=O)n(C)c(=O)n3C)cc1 > 76.9 µM, COc1ccccc1NC(=O)C1CCN(c2ncccn2)CC1 > 76.9 µM, Cc1cccc(C)c1NC(=O)CSc1nnc(-c2ccoc2C)n1C > 76.9 µM, CCOC(=O)C1=C(C)NC(=O)NC1c1cc2c(cc1Br)OCO2 (configuration not stated) > 76.9 µM, N#CC(C(=O)NC1CCCCC1)c1nc2ccccc2nc1N1CCOCC1 (configuration not stated) > 76.9 µM, Cc1cc(C)nc(NS(=O)(=O)c2ccc(NC(=O)CCC3COc4ccccc4O3)cc2)n1 (configuration not stated) > 76.9 µM, Cn1c(COc2ccccc2)nnc1SCc1nc2ccccc2[nH]1 > 76.9 µM, CCN(CC)S(=O)(=O)c1cccc(C(=O)Nc2ccccc2)c1 > 76.9 µM, CC(C)(O)C#Cc1ccc(C(=O)N2CCCC2C(=O)O)s1 (configuration not stated) > 76.9 µM, O=C(Nc1ccc(F)cc1)c1ccc(S(=O)(=O)NCC2CCCO2)cc1 (configuration not stated) > 76.9 µM, CCOC(=O)C1=C(C)NC(=O)NC1c1ccc(NC(C)=O)cc1 (configuration not stated) > 76.9 µM, CCN(CC(=O)Nc1c(C(=O)OC)[nH]c2ccccc12)c1ccc2c(c1)OCO2 > 76.9 µM, Cc1cccc(Cn2c(NCCO)nc3c2c(=O)n(C)c(=O)n3C)c1 > 76.9 µM, COC(=O)C(CCSC)NC(=O)C(NC(=O)C1CCC(C)CC1)C(C)C (configuration not stated) > 76.9 µM, COc1ccc(CCNC(=O)c2cc3sccc3n2C)cc1OC > 76.9 µM, C=CCn1c(SCC(=O)Nc2ccc3c(c2)OCO3)nc2ccccc2c1=O > 76.9 µM, CCc1c(C(=O)NC2CCCC2)csc1C > 76.9 µM, CCCCCn1c(Br)nc2c1c(=O)n(CC(N)=O)c(=O)n2C > 76.9 µM, COc1ccc(N(CC(=O)NC(C)(C)C)S(=O)(=O)c2ccccc2)cc1OC > 76.9 µM, COc1cc(OC)c(C2=NOC(C(=O)O)C2)cc1Cl (configuration not stated) > 76.9 µM, CC(=O)Nc1sc(C)c(C)c1CN1CCN(S(=O)(=O)c2ccccc2)CC1 > 76.9 µM, O=c1cc(CSc2nnc(COc3ccccc3)o2)c2ccccc2[nH]1 > 76.9 µM, Cn1c(CN2CCOCC2)nc2cc(NC(=O)c3ccc(F)cc3)ccc21 > 76.9 µM, CCc1ccc(-c2ccc(C(=O)O)cc2)nc1 > 76.9 µM, CC(=O)OC1CC(C)(C)N(OC(=O)c2ccc(N)cc2)C(C)(C)C1 > 76.9 µM, N#Cc1ccc2ccn(CC(=O)N3CCCc4ccccc43)c2c1 > 76.9 µM
